# According to patent US20240254195A1 (35PHARMA, published 2024):
# T1: recombinant human activin A (human, UniProt P08476 311-426)
# T1 sequence (looked up): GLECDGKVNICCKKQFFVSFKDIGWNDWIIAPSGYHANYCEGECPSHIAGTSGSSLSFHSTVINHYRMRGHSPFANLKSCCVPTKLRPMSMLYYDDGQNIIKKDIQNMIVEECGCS
# T2: GDF-11 (UniProt O95390 299-407)
# T2 sequence (looked up): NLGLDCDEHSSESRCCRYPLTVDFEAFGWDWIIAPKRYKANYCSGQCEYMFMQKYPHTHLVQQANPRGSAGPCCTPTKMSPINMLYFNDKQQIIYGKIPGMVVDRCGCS
# T3: activin B (UniProt P09529 293-407)
# T3 sequence (looked up): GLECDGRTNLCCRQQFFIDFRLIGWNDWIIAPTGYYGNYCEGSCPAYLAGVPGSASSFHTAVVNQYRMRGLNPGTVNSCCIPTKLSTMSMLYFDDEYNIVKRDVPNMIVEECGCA
# T4: GDF-8 (UniProt O14793 267-375)
# T4 sequence (looked up): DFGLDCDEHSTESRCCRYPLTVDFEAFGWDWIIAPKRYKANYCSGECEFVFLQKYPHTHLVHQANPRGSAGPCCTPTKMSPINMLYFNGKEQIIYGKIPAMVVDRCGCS
# T5: BMP-10 (UniProt O95393 317-424)
# T5 sequence (looked up): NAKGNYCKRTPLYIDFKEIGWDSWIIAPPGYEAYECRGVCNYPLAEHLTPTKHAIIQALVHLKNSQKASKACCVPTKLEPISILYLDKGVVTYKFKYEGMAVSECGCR
# T6: BMP-9 (UniProt Q9UK05 320-429)
# T6 sequence (looked up): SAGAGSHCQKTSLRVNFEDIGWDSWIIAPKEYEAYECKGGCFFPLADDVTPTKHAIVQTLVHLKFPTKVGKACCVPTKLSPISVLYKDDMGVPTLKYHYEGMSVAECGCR
# Columns and labels:
# Test in all cases: cell-based or functional assay
# [1] = molecular target: T1, recombinant human activin A
# GDF-11 = molecular target: T2, GDF-11
# activin B = molecular target: T3, activin B
# GDF-8 = molecular target: T4, GDF-8
# BMP-10 = molecular target: T5, BMP-10
# BMP-9 [2] = molecular target: T6, BMP-9
# BMP-9 [3] = molecular target: T6, BMP-9; remark: listed apart in the source
Activin A IC50 [1] [nM],GDF-11 IC50 (GDF-11) [nM],Activin B IC50 (activin B) [nM],GDF-8 IC50 (GDF-8) [nM],BMP-10 IC50 (BMP-10) [nM],BMP-9 IC50 (BMP-9 [2]) [nM],fold less potent than P75 (BMP-9 [3]) [fold],Binder
0.53,0.46,2.9,0.4,> 100,> 1000,> 100,P1373 (Fc fusion) ETRECIYYNANWELERTNQSGLERCEGEQDKRWHCYASWRNSSGTIELVKKGCWLDDFNCYDRQECVATEENPQVYFCCCEGNFCNERFTHLPEAGGPEVTYEPPPTGGGGSGGGGSGGGGSGG[human IgG1 Fc and a few adjoining residues cut from this listing]
0.55,0.39,1.9,0.48,> 100,> 1000,,P1409 (Fc fusion) ETRECIYYNANWEQERTNQSGLERCEGEQDKRWHCYASWRNSSGTIELVKKGCWLDDFNCYDRQECVATEENPQVYFCCCEGNFCNERFTHLPEAGGPEVTYEPPPTGGGGSGGGGSGGGGSGG[human IgG1 Fc and a few adjoining residues cut from this listing]
0.52,0.39,1,0.4,> 100,> 100,,P1389 (Fc fusion) ETRECIYYNANWELERTNQSGLERCETEQDKRWHCYASWRNSSGTIELVKKGCWLDDFNCYDRQECVATEENPQVYFCCCEGNFCNERFTHLPEAGGPEVTYEPPPTGGGGSGGGGSGGGGSGG[human IgG1 Fc and a few adjoining residues cut from this listing]
1.7,0.37,> 20,0.33,> 100,> 1000,,P1406 (Fc fusion) ETRECIYYNANWEEERTNQSGLERCEGEQDKRWHCYASWRNSSGTIELVKKGCWLDDFNCYDRQECVATEENPQVYFCCCEGNFCNERFTHLPEAGGPEVTYEPPPTGGGGSGGGGSGGGGSGG[human IgG1 Fc and a few adjoining residues cut from this listing]
0.53,0.4,1.9,0.37,,,,P1374 (Fc fusion) ETRECIYYNANWELERTNQSGLERCEGEQDKRWHCYASWRNSSGTIELVKKGCWLDDFNCYDRQECVATEENPQVYFCCCEGNFCNERFTHLPEAGGPEVTYEPPPTGGGGSGGGGSGGGGSGGGG[human IgG1 Fc with changes cut from this listing]
0.56,0.6,2.7,0.23,,,,P1371 (Fc fusion) ETRECIYYNANWELERTNQSGLERCEGEQDKRWHCYASWRNSSGTIELVKKGCWLDDFNCYDRQECVATEENPQVYFCCCEGNFCNERFTHLPEAGGPEVTYEPPPTGGGGSGGGGSGGGG[human IgG1 Fc with changes cut from this listing]
2.3,0.75,1.4,0.67,2,3,,wild type human ActRIIB-ECD-Fc (P75) (Fc fusion) ETRECIYYNANWELERTNQSGLERCEGEQDKRLHCYASWRNSSGTIELVKKGCWLDDFNCYDRQECVATEENPQVYFCCCEGNFCNERFTHLPEAGGPEVTYEPPPTG[human IgG1 Fc and a few adjoining residues cut from this listing]
0.82,0.25,0.8,0.3,2.4,18,,P751 (Fc fusion) ETRECIYYNANWELERTNQSGLERCEGEQDKRYHCYASWRNSSGTIELVKKGCWLDDFNCYDRQECVATEENPQVYFCCCEGNFCNERFTHLPEAGGPEVTYEPPPTGGGGSGGGGSGG[human IgG1 Fc and a few adjoining residues cut from this listing]
0.7,0.39,1.8,0.33,> 100,> 1000,> 100,P1229 (Fc fusion) ETRECIYYNANWELERTNQSGLERCEGEQDKRWHCYASWRNSSGTIELVKKGCWLDDFNCYDRQECVATEENPQVYFCCCEGNFCNERFTHLPEAGGPEVTYEPPPTGGGGSGGGGSGG[human IgG1 Fc and a few adjoining residues cut from this listing]
1,0.44,5.2,0.33,2.3,791,,P1185 (Fc fusion) ETRECIYYNANWELERTNQSGLERCEEEQDKRYHCYASWRNSSGTIELVKKGCWLDDFNCYDRQECVATEENPQVYFCCCEGNFCNERFTHLPEAGGPEVTYEPPPTGGGGSGGGGSGG[human IgG1 Fc and a few adjoining residues cut from this listing]
0.76,0.51,1,0.58,4.7,21,,P750 (Fc fusion) ETRECIYYNANWELERTNQSGLERCEGEQDKRRHCYASWRNSSGTIELVKKGCWLDDFNCYDRQECVATEENPQVYFCCCEGNFCNERFTHLPEAGGPEVTYEPPPTGGGGSGGGGSGG[human IgG1 Fc and a few adjoining residues cut from this listing]
0.85,0.46,7.7,0.37,2.4,265,,P1182 (Fc fusion) ETRECIYYNANWELERTNQSGLERCEDEQDKRYHCYASWRNSSGTIELVKKGCWLDDFNCYDRQECVATEENPQVYFCCCEGNFCNERFTHLPEAGGPEVTYEPPPTGGGGSGGGGSGG[human IgG1 Fc and a few adjoining residues cut from this listing]
